Data as given in the antibiotic and cytotoxicity screens of Wong et al. (2023).
The other results are listed elsewhere or left out.

system: HSkMC (human skeletal muscle cells); assay: cytotoxicity call (relative viability < 0.9); settings: 10 µM

SMILES | cytotoxicity call
CCCC(=O)Nc1ccc2c(c1)C(=O)N(C)[C@H]1CC[C@@H](CC(=O)NCCN3CCCCC3)O[C@@H]1CO2 | inactive
CCOC(=O)Cn1c(=O)c(C(N)=S)cn(C(C)C)c1=O | inactive
C[C@@H]1CN([C@H](C)CO)C(=O)c2cc(NC(=O)Cc3ccccc3)ccc2O[C@@H](C)CCCCO[C@H]1CN(C)C(=O)Nc1ccc(F)cc1 | inactive
C[C@@H]1CN([C@H](C)CO)C(=O)c2cc(NC(=O)Nc3cccc4ccccc34)ccc2O[C@@H](C)CCCCO[C@@H]1CN(C)S(=O)(=O)c1cccs1 | inactive
Cc1noc(C)c1NC(=O)N(C)C[C@H]1OCCCC[C@@H](C)Oc2ccc(NC(=O)Cc3ccccc3)cc2C(=O)N([C@H](C)CO)C[C@H]1C | inactive
C[C@@H]1CN([C@H](C)CO)S(=O)(=O)c2ccc(C#CC3CCCCC3)cc2O[C@H]1CN(C)C(=O)Cc1ccncc1 | inactive
C[C@@H]1CCCCO[C@H](CN(C)S(=O)(=O)c2ccc(F)cc2)[C@@H](C)CN([C@@H](C)CO)C(=O)c2cc(NC(=O)Nc3ccc(F)cc3)ccc2O1 | inactive
CC(C)NC(=O)Nc1ccc2c(c1)C(=O)N(C)[C@H]1CC[C@@H](CC(=O)NCc3ccc(F)cc3)O[C@@H]1CO2 | inactive
COc1ccc(C#Cc2ccc3c(c2)O[C@@H](CN(C)C(=O)c2ccccn2)[C@@H](C)CN([C@H](C)CO)S3(=O)=O)cc1 | inactive
C[C@@H]1CN([C@H](C)CO)C(=O)c2cc(NC(=O)Nc3ccccc3)ccc2O[C@@H](C)CCCCO[C@H]1CN(C)S(=O)(=O)c1cccs1 | inactive
NCC(=O)NCC(=O)O | inactive
C[C@H]1CCCCO[C@@H](CN(C)S(=O)(=O)c2cccs2)[C@@H](C)CN([C@@H](C)CO)C(=O)c2cc(NC(=O)Nc3ccc4c(c3)OCO4)ccc2O1 | inactive
CSC[C@H]1O[C@H](n2ccc3c(N)ncnc32)[C@@H](O)[C@H]1O | inactive
C[C@H](CO)N1C[C@H](C)[C@@H](CN(C)Cc2ccc(F)cc2)Oc2cc(C#CC(C)(C)O)ccc2S1(=O)=O | inactive
O=C(C[C@@H]1CC[C@H]2[C@@H](COC[C@H](O)CN2S(=O)(=O)c2ccccc2)O1)NCc1ccc(-c2ccccc2)cc1 | inactive
O=C(C[C@H]1CC[C@H](NC(=O)CN2CCOCC2)[C@H](CO)O1)NC1CCC1 | inactive

SMILES | cytotoxicity call
C[C@H]1CN([C@@H](C)CO)C(=O)Cc2cc(NS(=O)(=O)c3ccc(F)cc3)ccc2O[C@@H]1CN(C)S(=O)(=O)c1ccc(F)cc1 | inactive
COc1ccc(S(=O)(=O)Nc2ccc3c(c2)C(=O)N([C@@H](C)CO)C[C@H](C)[C@@H](CN(C)S(=O)(=O)c2cn(C)cn2)OCCCC[C@H](C)O3)cc1 | inactive
C[C@@H]1CN([C@@H](C)CO)S(=O)(=O)c2ccc(-c3ccc(C(=O)N(C)C)cc3)cc2O[C@H]1CN(C)C(=O)Cc1ccccn1 | inactive
Cc1ccc(S[C@]2(C(=O)NCC(C)C)CC(=O)N(Cc3cc(C(F)(F)F)cc(C(F)(F)F)c3)[C@@H]2c2ccc(CO)cc2I)cc1 | inactive
CCCN(C)C[C@H]1OCCCC[C@H](C)Oc2ccc(NC(=O)Cc3ccccc3)cc2C(=O)N([C@H](C)CO)C[C@H]1C | inactive
C[C@@H]1CN([C@@H](C)CO)C(=O)c2cc(NC(=O)Nc3ccc(C(F)(F)F)cc3)ccc2O[C@@H](C)CCCCO[C@H]1CN(C)Cc1ccc2c(c1)OCO2 | active
C[C@@H]1CCCCO[C@H](CN(C)S(C)(=O)=O)[C@H](C)CN([C@@H](C)CO)C(=O)c2cc(NS(=O)(=O)c3cn(C)cn3)ccc2O1 | inactive
COc1ccc2c(c1)OCC(Cc1ccc(OC)c(O)c1)C2=O (configuration not stated) | inactive
C[C@@H]1CN([C@H](C)CO)C(=O)c2cc(NC(=O)Nc3cccc4ccccc34)ccc2O[C@@H]1CN(C)Cc1ccc2c(c1)OCO2 | inactive
CC(C)CC#Cc1cnc2c(c1)C(=O)N([C@@H](C)CO)C[C@@H](C)[C@@H](CN(C)S(=O)(=O)c1cccs1)O2 | inactive
Cc1noc(C)c1NC(=O)Nc1ccc2c(c1)C(=O)N([C@@H](C)CO)C[C@H](C)[C@H](CN(C)Cc1ccc(C(F)(F)F)cc1)O2 | inactive
C[C@H](CO)N1C[C@H](C)[C@@H](CN(C)C(=O)CCCN(C)C)OCCCC[C@H](C)Oc2ccc(NC(=O)Nc3ccc(F)cc3)cc2C1=O | inactive
C[C@@H]1CN([C@@H](C)CO)C(=O)c2cc(NS(=O)(=O)c3ccc(F)cc3)ccc2O[C@H]1CN(C)Cc1ccncc1 | inactive
COc1cccc(CNC(=O)C[C@H]2C=C[C@H](NC(=O)C3CCOCC3)[C@H](CO)O2)c1 | inactive
C[C@@H]1CCCCO[C@@H](CN(C)S(=O)(=O)c2cn(C)cn2)[C@@H](C)CN([C@@H](C)CO)C(=O)c2cc(NC(=O)CCCN(C)C)ccc2O1 | inactive
C[C@@H]1CCCCO[C@@H](CN(C)C(=O)Nc2cccc3ccccc23)[C@H](C)CN([C@@H](C)CO)C(=O)c2cc(N(C)C)ccc2O1 | inactive
